# According to the supplement of paper PMC8728848:
# This is one part of the list.
# Assays:
# Assay in all cases: glycan array binding signal (z-score within array); higher = stronger binding
# Conditions in all cases: glycan notation: IUPAC condensed, linker removed
# [1] = target: Gal(b1-3)Gal(b1-4)GlcNAc(b1-2)Man(a1-3)[Gal(b1-3)Gal(b1-4)GlcNAc(b1-2)Man(a1-6)]Man(b1-4)GlcNAc(b1-4)GlcNAc
# Summary of the method: (§1)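 Glycan array binding is given as a within-array Z-score, which can be read as non-binding when negative. The arrays, 3228 of them, came from the Consortium for Functional Glycomics database and were retained only where the protein sequence was available. Z-scores were averaged across arrays of the same protein sequence at different concentrations or buffers and across linkers.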
# Gal(b1-3)GalNAc = target: Gal(b1-3)GalNAc
# Summary of the method: as §1
# [2] = target: Gal(b1-3)GalNAc(a1-3)[Fuc(a1-2)]Gal(b1-4)Glc
# Summary of the method: as §1
# [3] = target: Gal(b1-3)GalNAc(a1-3)[Fuc(a1-2)]Gal(b1-4)GlcNAc
# Summary of the method: as §1
# [4] = target: Gal(b1-3)GalNAc(b1-3)Gal(a1-4)Gal(b1-4)Glc
# Summary of the method: as §1
# [5] = target: Gal(b1-3)GalNAc(b1-4)Gal(b1-4)Glc
# Summary of the method: as §1
# [6] = target: Gal(b1-3)GalNAc(b1-4)[Neu5Ac(a2-3)]Gal(b1-4)Glc
# Summary of the method: as §1
# Gal(b1-3)GlcNAc = target: Gal(b1-3)GlcNAc
# Summary of the method: as §1
# [7] = target: Gal(b1-3)GlcNAc(a1-6)Gal(b1-4)GlcNAc
# Summary of the method: as §1
# [8] = target: Gal(b1-3)GlcNAc(b1-2)Man(a1-3)[Gal(b1-3)GlcNAc(b1-2)Man(a1-6)]Man(b1-4)GlcNAc(b1-4)GlcNAc
# Summary of the method: as §1
# [9] = target: Gal(b1-3)GlcNAc(b1-2)Man(a1-3)[Gal(b1-3)GlcNAc(b1-2)Man(a1-6)]Man(b1-4)GlcNAc(b1-4)[Fuc(a1-6)]GlcNAc
# Summary of the method: as §1
# [10] = target: Gal(b1-3)GlcNAc(b1-2)[Gal(b1-3)GlcNAc(b1-6)]Man(a1-6)[Gal(b1-3)GlcNAc(b1-2)Man(a1-3)]Man(b1-4)GlcNAc(b1-4)GlcNAc
# Summary of the method: as §1
# [11] = target: Gal(b1-3)GlcNAc(b1-3)Gal(b1-3)GlcNAc
# Summary of the method: as §1
# [12] = target: Gal(b1-3)GlcNAc(b1-3)Gal(b1-4)Glc
# Summary of the method: as §1
# [13] = target: Gal(b1-3)GlcNAc(b1-3)Gal(b1-4)GlcNAc
# Summary of the method: as §1
# [14] = target: Gal(b1-3)GlcNAc(b1-3)Gal(b1-4)GlcNAc(b1-6)[Gal(b1-3)GlcNAc(b1-3)]Gal(b1-4)Glc
# Summary of the method: as §1
# [15] = target: Gal(b1-3)GlcNAc(b1-3)Gal(b1-4)[Fuc(a1-3)]GlcNAc(b1-6)[Gal(b1-3)GlcNAc(b1-3)]Gal(b1-4)Glc
# Summary of the method: as §1
# [16] = target: Gal(b1-3)GlcNAc(b1-3)GalNAc
# Summary of the method: as §1
# [17] = target: Gal(b1-3)GlcNAc(b1-6)Gal(b1-4)GlcNAc
# Summary of the method: as §1
# [18] = target: Gal(b1-3)[Fuc(a1-4)]GlcNAc
# Summary of the method: as §1
# [19] = target: Gal(b1-3)[Fuc(a1-4)]GlcNAc(b1-2)Man(a1-3)[Gal(b1-3)[Fuc(a1-4)]GlcNAc(b1-2)Man(a1-6)]Man(b1-4)GlcNAc(b1-4)GlcNAc
# Summary of the method: as §1
# [20] = target: Gal(b1-3)[Fuc(a1-4)]GlcNAc(b1-2)Man(a1-3)[Gal(b1-3)[Fuc(a1-4)]GlcNAc(b1-2)Man(a1-6)]Man(b1-4)GlcNAc(b1-4)[Fuc(a1-6)]GlcNAc
# Summary of the method: as §1
# [21] = target: Gal(b1-3)[Fuc(a1-4)]GlcNAc(b1-3)Gal(b1-3)[Fuc(a1-4)]GlcNAc
# Summary of the method: as §1
# [22] = target: Gal(b1-3)[Fuc(a1-4)]GlcNAc(b1-3)Gal(b1-4)GlcNAc
# Summary of the method: as §1
# [23] = target: Gal(b1-3)[Fuc(a1-4)]GlcNAc(b1-3)Gal(b1-4)[Fuc(a1-3)]GlcNAc
# Summary of the method: as §1
# [24] = target: Gal(b1-3)[GlcNAc(b1-6)]GalNAc
# Summary of the method: as §1
# [25] = target: Gal(b1-3)[Neu5Ac(a2-6)]GalNAc
# Summary of the method: as §1
# [26] = target: Gal(b1-3)[Neu5Ac(a2-6)]GlcNAc(b1-6)Gal(b1-4)Glc
# Summary of the method: as §1
# [27] = target: Gal(b1-3)[Neu5Ac(b2-6)]GalNAc
# Summary of the method: as §1
# Gal(b1-4)Gal = target: Gal(b1-4)Gal
# Summary of the method: as §1
# [28] = target: Gal(b1-4)GalNAc(a1-3)[Fuc(a1-2)]Gal(b1-4)GlcNAc
# Summary of the method: as §1
# [29] = target: Gal(b1-4)GalNAc(b1-3)[Fuc(a1-2)]Gal(b1-4)GlcNAc
# Summary of the method: as §1
# Gal(b1-4)Glc = target: Gal(b1-4)Glc
# Summary of the method: as §1
# Gal(b1-4)Glc6S = target: Gal(b1-4)Glc6S
# Summary of the method: as §1
# Gal(b1-4)GlcNAc = target: Gal(b1-4)GlcNAc
# Summary of the method: as §1
# [30] = target: Gal(b1-4)GlcNAc(a1-6)Gal(b1-4)GlcNAc
# Summary of the method: as §1
# Gal(b1-4)GlcNAc(b1-2)Man = target: Gal(b1-4)GlcNAc(b1-2)Man
# Summary of the method: as §1
# [31] = target: Gal(b1-4)GlcNAc(b1-2)Man(a1-3)Man(b1-4)GlcNAc(b1-4)GlcNAc
# Summary of the method: as §1
binder,measurement,setting,value
XCL (Xerocomus chrysenteron) (protein) MSYSITLRVYQTNRDRGYFSIVEKTVWHFANGGTWSEANGAHTLTQGGSGTSGVLRFLSTKGERITVAVGVHNYKRWCDVVTGLKPDETALVINPQYYNNGGRDYVREKQLAEYSVTSAIGTKVEVVYTVAEGNNLEANVIFS,glycan array binding signal (z-score),[1],-0.319
same,glycan array binding signal (z-score),Gal(b1-3)GalNAc,1.2
same,glycan array binding signal (z-score),[2],1.42
same,glycan array binding signal (z-score),[3],3.43
same,glycan array binding signal (z-score),[4],-0.328
same,glycan array binding signal (z-score),[5],-0.32
same,glycan array binding signal (z-score),[6],-0.321
same,glycan array binding signal (z-score),Gal(b1-3)GlcNAc,-0.297
same,glycan array binding signal (z-score),[7],-0.315
same,glycan array binding signal (z-score),[8],-0.294
same,glycan array binding signal (z-score),[9],-0.281
same,glycan array binding signal (z-score),[10],-0.292
same,glycan array binding signal (z-score),[11],-0.323
same,glycan array binding signal (z-score),[12],-0.31
same,glycan array binding signal (z-score),[13],-0.316
same,glycan array binding signal (z-score),[14],-0.316
same,glycan array binding signal (z-score),[15],-0.31
same,glycan array binding signal (z-score),[16],-0.286
same,glycan array binding signal (z-score),[17],-0.324
same,glycan array binding signal (z-score),[18],-0.267
same,glycan array binding signal (z-score),[19],-0.323
same,glycan array binding signal (z-score),[20],-0.183
same,glycan array binding signal (z-score),[21],-0.261
same,glycan array binding signal (z-score),[22],-0.311
same,glycan array binding signal (z-score),[23],-0.304
same,glycan array binding signal (z-score),[24],1.25
same,glycan array binding signal (z-score),[25],2.19
same,glycan array binding signal (z-score),[26],-0.3
same,glycan array binding signal (z-score),[27],0.607
same,glycan array binding signal (z-score),Gal(b1-4)Gal,-0.322
same,glycan array binding signal (z-score),[28],-0.307
same,glycan array binding signal (z-score),[29],-0.307
same,glycan array binding signal (z-score),Gal(b1-4)Glc,-0.32
same,glycan array binding signal (z-score),Gal(b1-4)Glc6S,-0.322
same,glycan array binding signal (z-score),Gal(b1-4)GlcNAc,-0.322
same,glycan array binding signal (z-score),[30],-0.322
same,glycan array binding signal (z-score),Gal(b1-4)GlcNAc(b1-2)Man,-0.321
same,glycan array binding signal (z-score),[31],-0.259
